Reference: paper PMC12136788
Some of the results follow.

T1: UNK ZnF1-6 (called full-length) (human, UniProt Q9C0B0 30-357)
T1 sequence: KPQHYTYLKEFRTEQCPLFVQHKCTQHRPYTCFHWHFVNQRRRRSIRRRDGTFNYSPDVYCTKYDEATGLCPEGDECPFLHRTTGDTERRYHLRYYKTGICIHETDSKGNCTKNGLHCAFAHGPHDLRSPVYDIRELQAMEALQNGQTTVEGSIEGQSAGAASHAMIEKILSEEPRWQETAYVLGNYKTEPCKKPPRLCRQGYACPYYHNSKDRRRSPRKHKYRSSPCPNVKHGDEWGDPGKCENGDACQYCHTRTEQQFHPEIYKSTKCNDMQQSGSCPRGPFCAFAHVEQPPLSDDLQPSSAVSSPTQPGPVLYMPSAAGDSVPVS

B1: chr5:10679541:10679642:-|3pUTR|ENSG00000112977|msi1|total|mutant (ssRNA)
RNA: GGGAGUUCUACAGUCCGACGAUCCUUCAAGGCCCUGUCACCACCUAUUUCCUGAUCAGUUGGUAUAAACUGAGGGUGGCUUUCCGAGACCCAGACUUGGUUGGCAGCGCUGCCAUGGAACACCCCAGCAAGCACCUCCCAGCCCAACAGAGGAUUGAGCAUCA
B2: chr12:57010726:57010903:-|three_prime_utr|ENSG00000166863|control|control|control (ssRNA)
RNA: GGGAGUUCUACAGUCCGACGAUCGAGGGACCCAUAAUUGCAGCUUUCAUAAUCUUACCAUUGAGGGAGCAUUCCCAACCUGUUAGGUGUCAGGCAGAAUAGGACAUAAGGUUUCUGGGAGCUGGCAUUUAAAGAUUAGAUGAGCAACAGAGGAUUGAGCAUCA
B3: chr4:41013971:41014072:-|CDS|ENSG00000163697|msi1|total|mutant (ssRNA)
RNA: GGGAGUUCUACAGUCCGACGAUCGCAGGACCCCAACAAAAACCUGAGCCCCACUGCAGUCAUCAACAUAACUUCUGAGAAGUCCGAGGGUAAAGAGCCCCACCCACAGGAUUCCUCGAGCUGUGAGAUUUUACCCUCCCAGCCCAACAGAGGAUUGAGCAUCA
B4: chr15:42943230:42943331:-|3pUTR|ENSG00000159459|msi1|total|mutant (ssRNA)
RNA: GGGAGUUCUACAGUCCGACGAUCAUUAUGCUUAUGAAGUUUACUUACAAACAAGCAACUGAGUCACUUUAUUUUCUUCCGUGCCGUAUGUGAAGGCACUGGUUCAACAGGAUGGCUCCAGAACUGUGUUUUUCUAAUGUUUGGCAACAGAGGAUUGAGCAUCA
B5: chr15:90501451:90501552:+|3pUTR|ENSG00000140575|msi1_unk|FALSE|overlapping (ssRNA)
RNA: GGGAGUUCUACAGUCCGACGAUCCUGAGCCUCUAUUUUCUUUCUUUGAUGUUUUGAUUCAGUAUUCUUUUAUCAUAAAUUUUUAGCAUUUAAAAAUUCACUGAUGUACAUUAAGCCAAUAAACUGCUUUAAUGAAUAACAAACCAACAGAGGAUUGAGCAUCA
B6: chr4:143221337:143221438:+|3pUTR|ENSG00000170185|unk|total|mutant (ssRNA)
RNA: GGGAGUUCUACAGUCCGACGAUCUUGAAAGGUAACCGAUUUUCCAGAAGUAAAAUCUGAUGGUUCUAAAUCAAUCAAUGUGACCGUUCAUUUUUAACUCUCCGAAGAAUUCAGAGGAAAUUAACCCAGCUAAGUAAAAAAUCUCAACAGAGGAUUGAGCAUCA

What follows are binders tested against T1, UNK ZnF1-6 (called full-length) (assay: nsRBNS (natural sequence RNA bind-n-seq); RBNS binding buffer (assumed for nsRBNS): 25 mM Tris pH 7.5, 150 mM KCl, 3 mM MgCl2, 0.01% Triton X-100, 500 ug/ml BSA, 20 U/ml SUPERase-In, 4 C; UNK is unkempt and MSI1 is Musashi-1; names of the RNAs are library labels; protein concentration not given here; high values mean tight binding).

| Binder | binding signal [enrichment R] |
| --- | --- |
| B1 | 1.14 |
| B2 | 0.818 |
| B3 | 0.876 |
| B4 | 0.291 |
| B5 | 1.53 |
| B6 | 0.353 |
